In the supplement of paper PMC10600219:
Where a name gives a salt, the structure may show the parent alone. The full ranking holds about 2,800 compounds; the median of “cell viability relative to vehicle” is about 1.1, and the lowest 2% start at about 0.19. The list shows a part of the results.

System: NCI-H2228 parental
Assay: cell viability relative to vehicle (fraction of vehicle); NCI-H2228 is an ALK-positive lung cancer line and DTP means drug-tolerant persister; higher = less growth inhibition
Settings: 100 nM; treatment time 6 days
Outline: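 Values give cell viability as a fraction of vehicle-treated cells. Parental and drug-tolerant persister NCI-H2228 cells (persisters made with 1000 nM of a targeted drug for 13 days) were exposed in 384-well plates to the 3114-agent TargetMol anti-cancer compound library at 100 nM, with DMSO as vehicle. ATP was then read after 6 days by the CellTiter-Glo 3D Cell Viability Assay.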

SMILES | cell viability
COc1ccc(C2=N[C@@H](c3ccc(Cl)cc3)[C@@H](c3ccc(Cl)cc3)N2C(=O)N2CCNC(=O)C2)c(OC(C)C)c1 [Nutlin3] | 1.1
COc1ccc(C2=N[C@@H](c3ccc(Cl)cc3)[C@@H](c3ccc(Cl)cc3)N2C(=O)N2CCNC(=O)C2)c(OC(C)C)c1 [Nutlin-3a] | 1.03
CN/C(=N\CCSCc1nc[nH]c1C)NC#N [Cimetidine] | 1.07
COc1ccc2cc([C@H](C)C(=O)O)ccc2c1 [Naproxen] | 0.992
O=[N+]([O-])c1ccc(Nc2ccccc2-c2ccccc2)c2nonc12 | 0.948
C[C@]12CCC(=O)C=C1[C@@H]1C[C@@H]1[C@H]1[C@@H]3[C@@H]4C[C@@H]4[C@@]4(CCC(=O)O4)[C@@]3(C)CC[C@@H]12 [Drospirenone] | 1.22
COc1ccc2c3ccnc4ccc(=O)n(c2c1)c43 [9-Methoxycanthin-6-one] | 1.03
Nc1cc(N2CCCCC2)nc(N)[n+]1[O-] [Minoxidil] | 1.14
OCCn1cc(-c2cnc3nnn(Cc4ccc5ncccc5c4)c3n2)cn1 | 1.04
CC1=C(/C=C/C(C)=C/C=C/C(C)=C/CO)C(C)(C)CCC1 [Retinol] | 1.07
C/C=C(/C(=C/C)c1ccc(O)cc1)c1ccc(O)cc1 [Dienestrol] | 1.15
O=C(O)c1ccccc1OP(=O)(O)O [Fosfosal] | 1.23
Cc1ccc(C(=O)Nc2ccc(CN3CCN(C)CC3)c(C(F)(F)F)c2)cc1C#Cc1cnc2[nH]ncc2c1 | 0.73
Cc1ccc(C(=O)Nc2ccc(CN3CCN(C)CC3)c(C(F)(F)F)c2)cc1C#Cc1cnc2[nH]ncc2c1 [GZD824 Dimesylate] | 0.574
Oc1ccc(-c2nc(-c3ccc(F)cc3)c(-c3ccncc3)[nH]2)cc1 | 1.19
O=C(NC[C@H](O)CO)c1ccncc1Nc1ccc(I)cc1F [Pimasertib] | 0.86
O=C(O)c1ccc2cc(-c3ccc(O)c(C45CC6CC(CC(C6)C4)C5)c3)ccc2c1 | 0.292
CC1(C)S[C@@H]2[C@H](NC(=O)[C@H](N)c3ccccc3)C(=O)N2[C@H]1C(=O)O [Ampicillin sodium] | 1.11
C=C[C@H]1CN2CC[C@H]1C[C@H]2[C@H](O)c1ccnc2ccc(OC)cc12 [Quinine] | 1.09

SMILES | cell viability
O=C(O)c1cc(=O)[nH]c(=O)[nH]1 [Orotic acid] | 1
O=c1n(CCCN2CCN(c3cccc(Cl)c3)CC2)nc2ccccn12 [Trazodone hydrochloride] | 1.05
CC(=O)NCCCCCC(=O)O [Acexamic Acid] | 1.08
Cc1ccccc1C(C(=O)NC1CCCCC1)N(C(=O)Cn1ccnc1C)c1cccc(F)c1 (stereo not drawn) | 1.26
O=C(CCNNC(=O)c1ccncc1)NCc1ccccc1 [Nialamide] | 1.37
Cc1cnc(-c2ccccc2C(C)C)nc1NCc1ccc(-n2ccnn2)cc1 | 1
Nc1ccc(-c2ccc3ncc4ccc(=O)n(-c5cccc(C(F)(F)F)c5)c4c3c2)cn1 [Torin 2] | 0.218
Cc1ccccc1N1CCN(CCc2nnc3n2CCCC3)CC1 [Dapiprazole Hydrochloride] | 1.08
CSc1nc2cc(Cl)c(Oc3cccc(Cl)c3Cl)cc2[nH]1 [Triclabendazole] | 1.19
CCCCCCCCCCCCCCCCn1cc[n+](Cc2ccccc2)c1C | 0.938
O=C1[C@@H]2[C@H]3CC[C@H](C3)[C@@H]2C(=O)N1C[C@@H]1CCCC[C@H]1CN1CCN(c2nsc3ccccc23)CC1 [Lurasidone hydrochloride] | 0.925
Cn1cnc2c(F)c(Nc3ccc(Br)cc3F)c(C(=O)NOCCO)cc21 [Binimetinib] | 0.83
CC[C@H](CC#N)OC(=O)N[C@@H](C)c1cccc(NC(=O)Nc2ccc(-c3cnco3)c(OC)c2)c1 | 0.498
Nc1ccc(-c2cnc(N)c(-c3ccc(Cl)cc3)c2)cn1 | 1.1
COc1cc2nc(N3CCCC3)nc(NCCCCCN3CCCC3)c2cc1OC | 1.16
CC(=O)O[C@H]1C(=O)[C@@]2(C)[C@H]([C@H](OC(=O)c3ccccc3)[C@]3(O)C[C@H](OC(=O)[C@H](O)[C@@H](NC(=O)c4ccccc4)c4ccccc4)C(C)=C1C3(C)C)[C@]1(OC(C)=O)CO[C@@H]1C[C@@H]2O [Paclitaxel] | 0.128
CN1CCC(Nc2nc(Nc3ccc(Oc4ccccc4)cc3)c3c(=O)[nH]cc(Br)c3n2)CC1 | 1.06
COc1cccc2c1C(=O)c1c(O)c3c(c(O)c1C2=O)C[C@@](O)(C(=O)CO)C[C@@H]3O[C@H]1C[C@H](N)[C@@H](O)[C@H](C)O1 [Epirubicin hydrochloride] | 0.246
CC(=O)O/N=C1/C(c2c(O)[nH]c3cc(Br)ccc23)=Nc2ccccc21 [BIO-acetoxime] | 0.994
